Measured values reported in publication PMC4336329 (PLoS ONE, 2015).
In all, about 310,000 compounds went through this assay and about 2,200 (0.71%) showed an effect of 50% or more. The effect is printed as a negative number. This is one part of the list.

Molecular target: human ether-à-go-go-related gene (hERG) potassium channel (human, UniProt Q12809)
Experiment: primary screen, population patch clamp on CHO cells stably expressing hERG

Sequence of human ether-à-go-go-related gene (hERG) potassium channel (Q12809 whole entry, looked up): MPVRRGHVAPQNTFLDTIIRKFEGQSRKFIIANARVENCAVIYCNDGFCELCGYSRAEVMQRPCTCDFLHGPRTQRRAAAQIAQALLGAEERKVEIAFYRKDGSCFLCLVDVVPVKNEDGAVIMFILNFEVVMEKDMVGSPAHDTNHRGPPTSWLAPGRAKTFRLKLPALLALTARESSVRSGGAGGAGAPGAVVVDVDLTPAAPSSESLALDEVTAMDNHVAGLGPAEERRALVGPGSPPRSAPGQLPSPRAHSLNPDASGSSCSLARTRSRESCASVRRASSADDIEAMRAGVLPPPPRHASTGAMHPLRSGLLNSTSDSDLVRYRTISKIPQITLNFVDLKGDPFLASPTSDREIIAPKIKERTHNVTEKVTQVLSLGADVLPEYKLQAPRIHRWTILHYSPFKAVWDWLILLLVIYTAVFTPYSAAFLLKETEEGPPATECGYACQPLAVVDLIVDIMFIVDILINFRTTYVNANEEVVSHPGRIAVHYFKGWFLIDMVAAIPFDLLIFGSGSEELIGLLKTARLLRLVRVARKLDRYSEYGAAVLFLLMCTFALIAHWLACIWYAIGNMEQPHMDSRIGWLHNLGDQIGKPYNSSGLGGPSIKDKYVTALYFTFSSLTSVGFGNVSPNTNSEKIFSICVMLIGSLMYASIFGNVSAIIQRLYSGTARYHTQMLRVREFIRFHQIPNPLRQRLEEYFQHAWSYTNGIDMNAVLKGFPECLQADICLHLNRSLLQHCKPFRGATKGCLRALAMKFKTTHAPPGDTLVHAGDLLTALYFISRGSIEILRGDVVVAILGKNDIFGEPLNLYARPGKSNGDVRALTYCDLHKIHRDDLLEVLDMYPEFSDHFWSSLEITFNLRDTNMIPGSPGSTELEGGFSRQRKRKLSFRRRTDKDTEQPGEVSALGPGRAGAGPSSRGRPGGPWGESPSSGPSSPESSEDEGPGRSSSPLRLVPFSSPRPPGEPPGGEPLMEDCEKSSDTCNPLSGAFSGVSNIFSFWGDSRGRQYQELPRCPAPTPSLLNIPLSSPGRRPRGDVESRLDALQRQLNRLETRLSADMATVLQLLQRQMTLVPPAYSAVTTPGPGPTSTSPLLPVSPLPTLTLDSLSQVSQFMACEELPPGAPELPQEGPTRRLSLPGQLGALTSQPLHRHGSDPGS

Row | Compound | hERG current change (%, negative = inhibition) at 1uM [%]
1 | CC(C)[C@H](NC(=O)C1CCN(S(=O)(=O)c2ccccc2)CC1)C(=O)NCc1ccccn1 | 16.4
2 | CCCCCCn1c(CN2CCCCC2CC)nc2c1c(=O)n(C)c(=O)n2C (centres unmarked) | -19.9
3 | Cc1cc(=O)n2c(c1C#N)SC1CCCCC12O (centres unmarked) | 10.4
4 | Cc1noc(NS(=O)(=O)c2ccc(NC(=O)CSc3nc4ccccc4[nH]3)cc2)c1C | -2.29
5 | Cc1onc(-c2ccccc2)c1-c1nc2ccccc2c(=O)o1 | 19.4
6 | O=C(NC(=S)NCC1CCCO1)c1ccco1 (centres unmarked) | 10.7
7 | COC(=O)C1=C(c2ccc(F)cc2OCc2ccccc2)C[C@@H]2CC[C@H]1N2C(=O)NCc1cccc(OC)c1 | 15.8
8 | CC(OC(=O)c1cc2sccc2n1C)C(=O)NCc1ccc(F)cc1 (centres unmarked) | 3.5
9 | Cc1ccccc1-n1ncc2c1CC(C)(C)CC2NC(=O)CCC1=NNC(=O)CC1 (centres unmarked) | -15.2
10 | CC1CCCCN1CC(=O)Nc1ccccc1Sc1ccccc1 (centres unmarked) | 13.2
11 | CN1CCN(C(=O)CC2(CC(=O)O)CCCC2)CC1.Cl | 9.63
12 | COc1cccc(-n2nnc3c(=O)n(Cc4c(F)cccc4Cl)cnc32)c1 | 3.26
13 | CCSc1nnc(NC(=O)CC(C)C)s1 | 10.6
14 | Cl.Nc1ccc2nc(C3CCCCC3)[nH]c2c1 | 11.5
15 | CC1(C)Cc2c(c(N3CCOCC3)nc3sc(C#N)c(N)c23)CS1 | 7.2
16 | C=CCNC(=O)CN1CCC(n2c(C)nc3cc(C(F)(F)F)ccc32)CC1 | -31.9
17 | COc1ccc(OC)c(NC(=S)N(CCc2c(C)[nH]c3ccc(C)cc23)Cc2cccs2)c1 | 7.13
18 | O=C1CCc2cc(S(=O)(=O)NCCCC(=O)N3CCN(Cc4ccc5c(c4)OCO5)CC3)ccc2N1 | 4.53
19 | COc1cc(C)nc(NS(=O)(=O)c2ccc(C)cc2)n1 | 10.4

Row | Compound | hERG current change (%, negative = inhibition) at 1uM [%]
20 | CC(=O)C1=C(C)OC(N)=C(C#N)C1c1cc2cccc(C)c2nc1Cl (centres unmarked) | 10.7
21 | Cc1cc(N2C(=O)C(O)=C(C(=O)c3ccco3)C2c2ccc(Cl)cc2)no1 (centres unmarked) | -1.94
22 | O=C(O)Cn1nnnc1SCC(=O)Nc1ccccc1F | 11.2
23 | COc1cccc(CNC(=O)CCn2c(=O)c3cccn3c3cccnc32)c1 | 11.9
24 | CCOc1ccc(Cn2c(SCCCCC#N)nc3c2c(=O)n(C)c(=O)n3C)cc1OCC | -7
25 | COc1ccc(NC(=O)CSc2nc3c(c(=O)[nH]2)CCC3)cc1OC | 6.14
26 | O=C(N/C=N/OCc1cccc(C(F)(F)F)c1)N1OC[C@@H]2COc3ccc4ccccc4c3[C@@H]21 | 18
27 | C/C(=N\NC(=O)c1ccc(-c2ccccc2)cc1)C1C(=O)c2ccccc2C1=O | 18
28 | O=C(O)COc1ccc(/C=C2\SC(=Nc3ccccc3)N(c3ccccc3)C2=O)cc1 | 12.9
29 | CCOc1ccc(-c2nc(C)sc2CC(=O)O)cc1 | 14.1
30 | Cc1ccc(NC(=S)N/N=C/c2c(C)[nH]c3ccccc23)cc1 | 14.9
31 | CC1CN(C(=S)Nc2ccc(Br)cc2)CC(C)O1 (centres unmarked) | 19.9
32 | Cc1cc(NC(=O)CSc2nc(-c3ccc(Cl)cc3)cs2)no1 | -6.66
33 | CNC(=O)CCc1nc(-c2ccc(C(C)(C)C)cc2)no1 | 9.01
34 | COc1cc(C2N(c3ccc(Cl)cc3)C(=O)C3CCCN32)cc(OC)c1OC (centres unmarked) | 4.22
35 | CC1CC(=O)N(C)c2ccc([N+](=O)[O-])cc2N1 (centres unmarked) | 0.469
36 | N#CC(c1cccc(C(F)(F)F)c1)(c1ncc(C(F)(F)F)cc1Cl)N1CCOCC1 (centres unmarked) | 9.05
37 | Cc1ccc(NCc2ccccc2F)cc1 | -0.66
38 | COc1ccc(-c2cc(C(=O)N/N=C/c3ccc4c(c3)OCO4)c3ccccc3n2)c(OC)c1 | 9.83

Row | Compound | hERG current change (%, negative = inhibition) at 1uM [%]
39 | CCSc1nc2c(c(=O)n1Cc1ccccc1)SC(C)C2 (centres unmarked) | 5.63
40 | Cc1cccc2[nH]c(SCC(=O)N3CCOCC3)nc12 | 0.0741
41 | O=C(Cn1ncc2c1-c1ccccc1OC2)N1CCN(Cc2ccccc2)CC1 | -58
42 | O=C1Nc2cc(C(=O)N3CCc4ccccc4C3)ccc2S/C1=C\c1ccccc1 | -2.47
43 | O=C(NCc1csc(-c2ccccc2)n1)c1ccco1 | -10.7
44 | COc1ccccc1N1C(=O)c2ccc(C(=O)Nc3ccc(C(=O)O)cc3)cc2C1=O | 15
45 | CCN(CC(=O)Nc1ccc(Br)cc1F)CC(=O)NC1CCS(=O)(=O)C1 (centres unmarked) | 14.2
46 | C=CCNC(=S)NNC(=O)c1ccc2c(c1)OCO2 | 0.265
47 | CC(=O)c1cccc(NC(=O)CCOc2ccccc2)c1 | 8.13
48 | COc1ccc(/C=N/Nc2nc(N3CCCC3)nc(N3CCCC3)n2)c(OC)c1OC | 4.64
49 | COc1cc(/C=N/Nc2nn3cnnc3c3ccccc23)ccc1O | 20.3
50 | Cc1cc(C)n(-c2nc(N(c3ccccc3)c3ccccc3)nc(-n3nc(C)cc3C)n2)n1 | 11.6
51 | CN(CC(=O)Nc1sccc1C#N)Cc1ccccc1 | 4.37
52 | COc1cccc(NC(=O)CNC(=O)c2ccccc2)c1 | 5.93
53 | Cn1nc(-c2ccccc2)c(N2CCCCC2)cc1=O | 11.7
54 | CC1CC1C(=O)OCC(=O)Nc1cccc(S(=O)(=O)NC2=NCCCCC2)c1 (centres unmarked) | -3.21
55 | CCOC(=O)C(CCCCOc1cccc(CC)c1)C(=O)OCC | 10.2
56 | COc1ccc(C(CNC(=O)c2cccc(N(C)C)c2)N2CCCC2)cc1 (centres unmarked) | -10.2
